Experimental data reported in PMC4336329 (PLoS ONE, 2015).
In all, about 310,000 compounds went through this assay and about 2,200 (0.71%) showed an effect of 50% or more. The effect is printed as a negative number. Some of the results follow.

Target: human ether-à-go-go-related gene (hERG) potassium channel (human, UniProt Q12809)
Experiment: primary screen, population patch clamp on CHO cells stably expressing hERG

Sequence of human ether-à-go-go-related gene (hERG) potassium channel (Q12809 whole entry, looked up): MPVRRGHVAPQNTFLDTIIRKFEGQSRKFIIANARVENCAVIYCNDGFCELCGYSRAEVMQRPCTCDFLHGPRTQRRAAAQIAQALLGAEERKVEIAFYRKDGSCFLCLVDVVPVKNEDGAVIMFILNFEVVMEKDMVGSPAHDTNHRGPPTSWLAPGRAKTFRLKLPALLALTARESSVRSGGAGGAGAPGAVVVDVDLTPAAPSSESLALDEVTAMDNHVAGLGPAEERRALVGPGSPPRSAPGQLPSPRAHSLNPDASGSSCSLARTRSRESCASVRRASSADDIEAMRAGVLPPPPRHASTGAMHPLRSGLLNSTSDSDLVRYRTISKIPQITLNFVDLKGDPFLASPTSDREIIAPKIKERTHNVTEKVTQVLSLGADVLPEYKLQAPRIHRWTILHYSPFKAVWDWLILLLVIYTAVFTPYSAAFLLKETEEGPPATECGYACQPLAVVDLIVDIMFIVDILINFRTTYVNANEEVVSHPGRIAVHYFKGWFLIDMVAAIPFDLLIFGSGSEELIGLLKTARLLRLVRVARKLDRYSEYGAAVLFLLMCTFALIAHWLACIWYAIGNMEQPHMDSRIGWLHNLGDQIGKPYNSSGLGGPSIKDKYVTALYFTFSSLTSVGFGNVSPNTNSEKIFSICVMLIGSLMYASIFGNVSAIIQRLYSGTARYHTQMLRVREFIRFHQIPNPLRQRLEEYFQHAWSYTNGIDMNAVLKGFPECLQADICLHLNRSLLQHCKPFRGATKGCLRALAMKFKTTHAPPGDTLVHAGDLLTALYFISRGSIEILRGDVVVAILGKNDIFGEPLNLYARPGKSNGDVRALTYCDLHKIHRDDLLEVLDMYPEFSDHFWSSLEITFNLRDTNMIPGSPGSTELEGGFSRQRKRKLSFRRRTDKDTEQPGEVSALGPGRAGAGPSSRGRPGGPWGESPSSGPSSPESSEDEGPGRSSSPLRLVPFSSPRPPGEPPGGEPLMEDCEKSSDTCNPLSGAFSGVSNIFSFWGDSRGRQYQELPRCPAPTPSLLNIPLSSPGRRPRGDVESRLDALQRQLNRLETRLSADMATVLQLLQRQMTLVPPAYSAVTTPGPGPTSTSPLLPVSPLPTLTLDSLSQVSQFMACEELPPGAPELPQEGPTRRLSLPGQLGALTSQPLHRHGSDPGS

Going from `CCCCNC(=S)NNC(=O)c1nn(C)cc1Cl` to `CCCCNC(=O)CN(c1ccc(Cl)c(Cl)c1)S(C)(=O)=O`, the “hERG current change (%, negative = inhibition) at 1uM” value falls from 16.8% to 7.06%.

Going from `COc1ccc(N2CCN(Cc3csc(C)c3-c3ccc(C)cc3)CC2)cc1` to `COc1ccc(N2CCN(C(CNC(=O)CC(C)(C)C)c3ccc4c(c3)OCO4)CC2)cc1` (stereo not drawn), the “hERG current change (%, negative = inhibition) at 1uM” value falls from 14.2% to 0.587%.

Going from `CC(C)N1CCC(N2CCN(Cc3ccc(-c4ccc(Cl)cc4)o3)CC2CCO)CC1` (stereo not drawn) to `Brc1cc2c(cc1CN1CCN(c3ccccc3)CC1)OCCO2`, the “hERG current change (%, negative = inhibition) at 1uM” value rises from -28.2% to -1.98%.

Going from `O=C(Nc1cccnc1Cl)c1cc(-c2ccc(Cl)cc2)on1` to `CC(Oc1ccc(Cl)cc1Cl)c1nc(-c2ccc(NC(=O)c3ccncc3)cc2)no1` (stereo not drawn), the “hERG current change (%, negative = inhibition) at 1uM” value rises from 5.49% to 6.17%.

Going from `CC(C)(C)n1cnc2cc(NC(=O)c3cccs3)ccc21` to `COc1ccc(OCC(=O)Nc2ccc3c(c2)nc(CCn2ccccc2=O)n3C)cc1`, the “hERG current change (%, negative = inhibition) at 1uM” value rises from -1.55% to 8.17%.

Compared with `CCN1C=CC2=C(C#N)C(N)C(C#N)(C#N)C(c3ccccc3C(F)(F)F)C2C1` (stereo not drawn), `N#Cc1c(C(F)(F)F)cc(-c2ccccc2)nc1SCCN1CCOCC1` is lower in “hERG current change (%, negative = inhibition) at 1uM” value: 7.21% for the first, -0.0666% for the second.

Going from `COc1ccc(C(=O)NCC2CCCO2)cc1` (stereo not drawn) to `CCOC(=O)c1ccc(C(=O)NNC(=O)C2CC=CCC2)cc1` (stereo not drawn), the “hERG current change (%, negative = inhibition) at 1uM” value rises from 5.73% to 17.9%.

Going from `COc1cc(OC)c(C(=O)NCc2ccco2)cc1OC` to `COc1ccc(CNc2ccc(S(N)(=O)=O)cc2)c(OC)c1OC`, the “hERG current change (%, negative = inhibition) at 1uM” value falls from 17.5% to 4.7%.

Compared with `CC(O)CNCCCCOc1ccc(OCc2ccccc2)cc1` (stereo not drawn), `COc1ccc(-c2nnc(SCC(=O)NC(=O)NCc3ccccc3)o2)cc1` is lower in “hERG current change (%, negative = inhibition) at 1uM” value: 7% for the first, 5.21% for the second.

Going from `COc1ccccc1NC(=O)CCCc1c[nH]c2ccccc12` to `CCc1ccccc1NC(=O)CCN1C(=O)c2ccccc2C1=O`, the “hERG current change (%, negative = inhibition) at 1uM” value falls from 10.7% to 8.59%.

First: Cn1c(=O)c2cc(S(=O)(=O)N3CCN(c4cccc(C(F)(F)F)c4)CC3)ccc2n(C)c1=O
Second: CCOC(=O)N1CCN(S(=O)(=O)c2ccc(OC)c3ccccc23)CC1
The “hERG current change (%, negative = inhibition) at 1uM” value of the first is lower: 8.01% for the first, 8.95% for the second.

Going from `O=S(=O)(c1cccs1)N1CCN(Cc2ccccc2)CC1` to `O=C1N=C(N2CCOCC2)S/C1=C1\C(=O)N(Cc2ccccc2)c2ccccc21`, the “hERG current change (%, negative = inhibition) at 1uM” value rises from -0.662% to -0.171%.

First: CCC(=O)Nc1nnc(-c2cccs2)s1
Second: Cc1onc(-c2ccccc2Cl)c1C(=O)Nc1nnc(C(C)C)s1
The “hERG current change (%, negative = inhibition) at 1uM” value of the first is higher: 12.7% for the first, 10.1% for the second.

Going from `COc1cccc(C(=O)NC(=S)Nc2ccc(N3CCCC3)cc2)c1` to `Cc1cccc(OCCCC(=O)Nc2ccc(N3CCCCC3)cc2)c1`, the “hERG current change (%, negative = inhibition) at 1uM” value falls from 8.56% to 6.37%.

First: Cc1csc(NC(=O)CSc2nc3sc(C)c(C)c3c(=O)[nH]2)n1
Second: Cc1nc(NS(=O)(=O)c2ccccc2C)c2c3c(sc2n1)CCC3
The “hERG current change (%, negative = inhibition) at 1uM” value of the first is higher: 2.63% for the first, -5.99% for the second.

First: CCNC(=S)N1CCNC(=O)C1CC(=O)OC (stereo not drawn)
Second: COC(=O)CSc1nnc(CNc2nc(-c3ccccc3)cs2)n1C
The “hERG current change (%, negative = inhibition) at 1uM” value of the first is lower: 1.98% for the first, 14.7% for the second.

Going from `Cc1ccc(S(=O)(=O)Nc2cc(C(=O)N3CCC4(CC3)OCCO4)ccc2N2CCCCC2)cc1` to `Cc1ccc(S(=O)(=O)Nc2c(O)c3ccccc3oc2=O)cc1`, the “hERG current change (%, negative = inhibition) at 1uM” value rises from -3.7% to 9.69%.

First: CC1CCN(C(=O)c2nc[nH]c2C(=O)N2CCC(C)CC2)CC1
Second: CC1CC(C)CN(CCCNC(=O)C2CCN(S(=O)(=O)N3CCCCC3)CC2)C1 (stereo not drawn)
The “hERG current change (%, negative = inhibition) at 1uM” value of the first is higher: 13.5% for the first, 3.92% for the second.

First: CCN(CC(=O)Nc1ccccc1C(F)(F)F)C(=O)CCOc1ccccc1C
Second: CCOc1ccccc1NC(=O)COC(=O)Cc1cccs1
The “hERG current change (%, negative = inhibition) at 1uM” value of the first is lower: 9.61% for the first, 14.6% for the second.

First: Cc1cc(C)cc(NS(=O)(=O)c2ccc(Oc3ncc(C(F)(F)F)cc3Cl)cc2)c1
Second: COc1ccc2nc(NC(=O)c3cc(S(=O)(=O)N4CCOCC4)ccc3C)sc2c1
The “hERG current change (%, negative = inhibition) at 1uM” value of the first is higher: 22.3% for the first, 10.2% for the second.

Going from `CC(NC(=O)c1ccc([N+](=O)[O-])cc1[N+](=O)[O-])c1ccc(-c2ccccc2)cc1` (stereo not drawn) to `Cc1ccccc1NC(=O)c1cccc(S(=O)(=O)Oc2ccc([N+](=O)[O-])cc2)c1`, the “hERG current change (%, negative = inhibition) at 1uM” value falls from -0.571% to -3.42%.

First: c1ccc(N2CCN(c3nc(-c4ccccn4)nc4ccccc34)CC2)cc1
Second: O=C(O)c1ccc(Nc2nc(-c3ccccc3)c3ccccc3n2)cc1
The “hERG current change (%, negative = inhibition) at 1uM” value of the first is lower: -26.9% for the first, 14.8% for the second.

Compared with `Cn1c(Nc2ccccc2)nc2ccccc21`, `CC(=O)c1c(Nc2ccccc2)sc(C(=O)c2ccccc2)c1C` is lower in “hERG current change (%, negative = inhibition) at 1uM” value: 8.25% for the first, -1.65% for the second.

First: O=C1CC(SCc2nc3ccccc3[nH]2)C(=O)N1c1ccc(Cl)cc1 (stereo not drawn)
Second: O=C(Cc1ccc(-n2c(=O)[nH]c3ccsc3c2=O)cc1)N1CCN(c2ccc(Cl)cc2)CC1
The “hERG current change (%, negative = inhibition) at 1uM” value of the first is lower: -2.28% for the first, 10.6% for the second.

Going from `Cc1ccccc1OCC(O)CN1CCN(C)CC1.Cl` (stereo not drawn) to `CCOC(=O)C1(Cc2ccccc2C)CCCN(C(=O)c2ccc3nccnc3c2)C1` (stereo not drawn), the “hERG current change (%, negative = inhibition) at 1uM” value rises from 5.66% to 9.97%.

Going from `Cc1cc2cc(CN(Cc3cccs3)C(=S)NCC3CCCO3)c(=O)[nH]c2cc1C` (stereo not drawn) to `COCCCNC(=S)N(CCN(C)C)Cc1cc2cc3c(cc2[nH]c1=O)OCCO3`, the “hERG current change (%, negative = inhibition) at 1uM” value rises from 10.7% to 17.2%.

Going from `Cc1cccc(C)c1NC(=O)c1ccc(-n2cnnn2)cc1` to `Cc1cccc(NC(=O)Cn2nnc(C(=O)NCc3cccs3)c2N)c1C`, the “hERG current change (%, negative = inhibition) at 1uM” value rises from -16.1% to 15.8%.

Going from `Fc1ccc(-n2c(-c3cc(C4CC4)[nH]n3)n[nH]c2=S)cc1Cl` to `Cc1ccc(CNC(=O)C2CCC(CNc3nc(=S)[nH]c4ccccc34)CC2)cc1` (stereo not drawn), the “hERG current change (%, negative = inhibition) at 1uM” value falls from 10.6% to 9.64%.

Going from `CCN(CC)S(=O)(=O)c1ccc(Br)c(OC)c1` to `CCOC(=O)C(=CNc1ccc(OC)cc1[N+](=O)[O-])C(=O)OCC`, the “hERG current change (%, negative = inhibition) at 1uM” value rises from 6.23% to 14.8%.

Compared with `CN1CCn2c1nc(N1CCOCC1)nc2=O`, `O=C(N1CCOCC1)N1CCOCC1` is lower in “hERG current change (%, negative = inhibition) at 1uM” value: 4.3% for the first, -14.1% for the second.

Going from `N#C/C(=C\c1ccc(O)cc1)C(=O)NCc1cccc(Cl)c1` to `O=Cc1cc(N=Nc2cccc(C(=O)O)c2)ccc1O`, the “hERG current change (%, negative = inhibition) at 1uM” value falls from 20.1% to 8.91%.

Going from `Cc1ccc(OC(=O)c2cccc(S(=O)(=O)N3CCCC3)c2)c(-n2nc3ccccc3n2)c1` to `C=CCn1c(SCC(=O)Nc2ccc(-c3nc4ccc(C)cc4s3)cc2)nnc1-c1ccccc1`, the “hERG current change (%, negative = inhibition) at 1uM” value rises from 5.27% to 11.8%.

Going from `CCCCOC(=O)n1ccc(C(=O)Nc2ccccc2OC)n1` to `COc1cccc(OC)c1C(=O)Nc1sc2c(c1C(N)=O)CCN(Cc1ccccc1)C2.Cl`, the “hERG current change (%, negative = inhibition) at 1uM” value rises from 1.32% to 7.25%.

Compared with `CCC(NC(=O)c1cccc(Cn2nc(C)c([N+](=O)[O-])c2C)c1)c1ccc(C(C)C)cc1` (stereo not drawn), `Cc1nn(-c2ccccc2)c(N)c1Sc1cccc([N+](=O)[O-])c1.Cl` is higher in “hERG current change (%, negative = inhibition) at 1uM” value: -3.03% for the first, 6.21% for the second.

Compared with `CCC1C(=O)CC(c2ccco2)NC1c1ccco1` (stereo not drawn), `CCOC(=O)c1sc(NC(=O)c2ccco2)nc1-c1ccccc1` is higher in “hERG current change (%, negative = inhibition) at 1uM” value: 6.78% for the first, 12.2% for the second.

Compared with `CCCCN(C(=O)CCNC(=O)NC12CC3CC(CC(C3)C1)C2)c1c(N)n(CCCC)c(=O)[nH]c1=O`, `CCN(C(=O)COC(=O)/C=C/c1cccc([N+](=O)[O-])c1)c1c(N)n(Cc2ccccc2)c(=O)[nH]c1=O` is lower in “hERG current change (%, negative = inhibition) at 1uM” value: 10.4% for the first, 9.64% for the second.

Going from `O=S(=O)(NCc1ccccc1)c1ccc(S(=O)(=O)N(Cc2ccccn2)C2CCCC2)cc1` to `COC(=O)CCN(C1CCCCC1)S(=O)(=O)c1ccc(S(=O)(=O)NC2CCCCC2)cc1`, the “hERG current change (%, negative = inhibition) at 1uM” value falls from 8.51% to 2.04%.

Going from `O=C(O)COc1ccc(/C=N/n2cnc3scc(-c4cccs4)c3c2=O)cc1` to `O=C(O)c1ccc(COc2ccc3ccccc3c2/C=C2/NC(=O)N(c3ccccc3)C2=O)cc1`, the “hERG current change (%, negative = inhibition) at 1uM” value falls from 0.476% to -3.53%.

First: CC(=O)c1ccc(OCc2cc([N+](=O)[O-])cc3c2OCOC3)cc1
Second: Cc1ccc(S(=O)(=O)N/N=C/c2cccc([N+](=O)[O-])c2)cc1
The “hERG current change (%, negative = inhibition) at 1uM” value of the first is lower: 4.68% for the first, 17.4% for the second.

First: O=C(Nc1cccc(C(F)(F)F)c1)c1n[nH]c(Cn2cncn2)n1
Second: CC(=O)N(C)c1ccc(NC(=O)C(F)(F)F)cc1
The “hERG current change (%, negative = inhibition) at 1uM” value of the first is higher: 7.57% for the first, 1.19% for the second.

Going from `Cc1cccc(NC(=O)CCS(=O)(=O)c2cccc3nonc23)c1C` to `COC(=O)c1ccc(C(=O)OC)c(NC(=O)CSc2nnc(-c3ccccc3Cl)o2)c1`, the “hERG current change (%, negative = inhibition) at 1uM” value falls from 12.4% to -3.27%.

First: O=C(NCc1ccco1)C(c1ccccc1)N(CC1CCCO1)C(=O)Cn1nnc2ccccc21 (stereo not drawn)
Second: N#Cc1ccccc1CSc1ncccc1C(=O)O
The “hERG current change (%, negative = inhibition) at 1uM” value of the first is lower: -2.06% for the first, 18% for the second.

First: Cc1cccc(N/C=C/C(=C(C#N)C#N)N(C)C)c1
Second: CC(=O)Nc1ccc(C(=O)N/C(=C/c2ccccc2)C(=O)Nc2cccc(C(=O)O)c2)cc1
The “hERG current change (%, negative = inhibition) at 1uM” value of the first is lower: -13.8% for the first, 12.3% for the second.

In the case of `C=CCn1c(SCC(=O)N2CCCC2)nc2c([nH]c3ccccc32)c1=O`, the “hERG current change (%, negative = inhibition) at 1uM” value is reported as 5.21%.
